Test results published in PubChem BioAssay (NCI).
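96-well plates; 48 h exposure; 5 concentrations. Endpoints by linear interpolation between flanking doses. Not reached: highest tested concentration assigned. The concentration for 50% growth inhibition is given as GI50. TGI: total growth inhibition.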

These compounds were tested on NCI-H322M lung (assay: NCI-60 cell line screen, 48 h).

Compound	GI50 [µM]	TGI [µM]
Cc1ccc(CNC(=O)Cc2ccc3c(c2)CN(C2CCC(=O)NC2=O)C3=O)cc1 (stereo unspecified)	< 0.01	0.59
COc1ccc2[nH]c(O)c(N=Nc3nc(-c4ccc(Cl)cc4)cs3)c2c1	4.74	41.8
Cn1cc(-c2cc3nc(-c4cn(C)c5ncc(Br)cc45)cc(N)n3n2)c2cc(F)ccc21	5.75	23.1
